This note sets out measurements from the supplement of paper PMC11383711.

This is one part of the list. Binding of human antibodies (heavy:light variable regions, tested as scFv in one mRNA-display pool) to influenza hemagglutinin, with or without the stem antibody CR9114 bound first. Score = (mean enrichment − median) / interquartile range of that screen; higher = more enriched, 0 = typical non-binder. Active = above the paper's cut-off per screen: stems 28; unblocked H1 Solomon Islands 5, H1 Michigan 3, H3 5, H5 19, H7 2.85, both B 5; blocked 9, 7, H5 10, H7 10, B Phuket 10, B Lee 11.5. Scores are scaled within each screen and are no affinities; replicates correlate at about 0.6 to 0.9, and antibodies rare in the pool are noisier.

B1: C1-2E01 (protein)
chain 1: VQLVESGGGGVRPGRSLRLSCAASGFNFEHYGMIWVRQVPGKGLEWVSAITWNGGDTYYVDSVRGRFTISRDNAKRSLFLQMNSLRVEDTAFYYCAREMRDPYDAFDLWGQGTMVTVSS
chain 2: DIQMTQSPSSLSASVGDRVTITCRASHNIGSYLNWYQQKPGKAPQLLIYASSILQTGVPSRFSGSGSGTDYTLTISGLQRDDFATYFCQQSSTNPKTFGQGTRLEIK
B2: C6-C01 (protein)
chain 1: VQLVESGGGVVQPGKSLRLSCTASGFTFSSYAMHWVRQAPGKGLEWVAVVAYDGSNRYYVDSVKGRFTISRDNSKNTLYLQMNNIRPEDTAVYYCARVASMILVDIKYYFDYWGQGTLVTVSS
chain 2: EIVMTQSPATLSVSPGERATLSCRASQSVRSNLAWYQQKPGQAPRLLIYGASTRATGIPARFSGSGSGTEFTLTISSLQSDDFAVYHCQQYNEWPRTFGQGTKVEIK
B3: K77-1D04 (protein)
chain 1: EVQLVESGGGVVQPGGSLRLSCGASGFTFSDYGMHWVRQAPGKGLEWVTYIRYDGSNEFYADSVKGRFTVSRDNSKNTLYLEMHSLRPEDTAVYFCANSALGYCSGENCPKFDFWGQGTLVTVSS
chain 2: QSALTQPASVSGSPGQSITISCTGTSFDVGGYNYVSWYQQHPGKAPKLIIYDVSERPSGISNRFSASKSGITASLTISGLQAEDEADYYCSSYTSSGTHWLFGGGTKLTVL
B4: K77-2E05 (protein)
chain 1: QVQLVQSGAEVKRPGASVKVSCKASGYTFTSHYVTWVRQAPGQGLEWMGPIIPSAGSISYAQKFQGRVVMTRDTSTSTVYMELSSLRSEDTAVYYCARVGVQVERELRYYGMDVWGQGTTVTVSS
chain 2: EIVLTQSPGTLSLSPGERATLSCRASQSVSSSYLAWYQQKPGQAPRLLIYGASSRATGVPDRFSGSGSGTDFILTISRLEPEDFAVYYCQQYGFSGTTFGQGTRLEI
B5: 16.ND.92 (protein)
chain 1: EVQLVESGGGLVQPGGSLRLSCEASGFTLSSYWMHWVRQDPGKGLVWVAVINSDGSSTDYADFVKGRFTISRDNAKNTVYLQMNSLRAEDTAVYYCARAPQGTVFGVVIIGADGFDIWGQGTMVTVSS
chain 2: DIQMTHIPVSLSASVGDRVTITCRASQSISSWLAWYQQKPGKAPKLLIYKASTLESGVPSRFSGSGSGTDFTLTINSLQPDDFATYYCQHYNTYSRAWTFGQGTKVEVK
B6: 029-09-3A02 (protein)
chain 1: VQLVQSGAEVKKPGASVKVSCKASGYIFTGYYMEWVRQAPGQGLEWMGWINPNTGVTKYAQKFQGRVTMTRDTSLSTAYMELINLRSDDTAIYYCAKDRAWLVYDDGSDVWGQGTMVTVSS
chain 2: SYELTQPPSVSVSPGQTAIITCSGDILGDTYACWYQQKPGQSPVLVIYHDFKRPSGIPERFSGSNSGKTATLTITGTQAMDEADYFCQTWDGGALFGGGTKLTVL

For one experiment, the target named is Influenza A H1N1 A/Michigan/45/2015 hemagglutinin ectodomain. In words: mRNA display binding score; higher = more enriched on the antigen. Conditions: antigen blocked with: 2 µM CR9114 IgG. The method, then:
(§1)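 A pool of natively paired antibodies, displayed as scFv on mRNA, was selected once on antigen-coated beads and sequenced before and after; two replicates.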
Turning to B1, the “mRNA display binding score” value was inactive: -0.096.
For B2, the “mRNA display binding score” value is inactive: 0.339.
In the case of B3, the “mRNA display binding score” value was inactive: -0.48.
Turning to B4, the “mRNA display binding score” value is inactive: 0.18.
Still for that read-out and setting: the value for B5 was inactive: -0.415; that for B6 was active: 38.9.

Staying with this experiment, now noted: antigen blocked with: nothing.
Consider B1, for which the “mRNA display binding score” value is inactive: 0.147.
In the case of B2, the “mRNA display binding score” value was inactive: 1.43.
Consider B3, for which the “mRNA display binding score” value is inactive: -0.798.
As for B4, the “mRNA display binding score” value is inactive: -0.0365.
Consider B5, for which the “mRNA display binding score” value is inactive: -0.0357.
Same read-out and setting: to B6 belongs inactive: 1.21.

The target in another experiment is Influenza A H1N1 A/Solomon Islands/3/2006 hemagglutinin ectodomain. The experiment is described as above. The conditions noted are these: antigen blocked with: 2 µM CR9114 IgG. The method, then:
as §1
In the case of B1, the “mRNA display binding score” value was inactive: 0.296.
For the molecule B2, the “mRNA display binding score” value is inactive: 0.123.
Regarding B3, the “mRNA display binding score” value was inactive: -0.511.
For the molecule B4, the “mRNA display binding score” value was inactive: -0.441.
Regarding B5, the “mRNA display binding score” value was inactive: -0.122.
Same read-out and setting: to B6 belongs inactive: 0.412.

Staying with this experiment, now noted: antigen blocked with: nothing.
In the case of B1, the “mRNA display binding score” value is inactive: -0.368.
Turning to B2, the “mRNA display binding score” value is inactive: 0.408.
For the molecule B3, the “mRNA display binding score” value was inactive: -0.485.
Take B4: the “mRNA display binding score” value is inactive: -0.21.
In the case of B5, the “mRNA display binding score” value is inactive: 3.26.
With B6, the “mRNA display binding score” value was inactive: -0.157.

In the next experiment the target is Influenza A H3N2 A/Singapore/INFIMH-16-0019/2016 hemagglutinin ectodomain. Described as above. The conditions noted are these: antigen blocked with: nothing. As to the method:
as §1
In the case of B1, the “mRNA display binding score” value was inactive: -0.16.
Turning to B2, the “mRNA display binding score” value was inactive: -0.227.
In the case of B3, the “mRNA display binding score” value was inactive: -0.508.
Same read-out and setting: to B4 belongs inactive: -0.532; to B5, inactive: -0.0241.
As for B6, the “mRNA display binding score” value was inactive: -0.065.

The next experiment has as its target Influenza A H5N1 A/Qinghai/1A/2005 hemagglutinin ectodomain. Described as above. Conditions: antigen blocked with: 2 µM CR9114 IgG. The method, then:
as §1
Regarding B1, the “mRNA display binding score” value was inactive: 0.067.
With B2, the “mRNA display binding score” value was inactive: 0.415.
Consider B3, for which the “mRNA display binding score” value was inactive: -0.521.
For the molecule B4, the “mRNA display binding score” value was inactive: -0.303.
On to B5, for which the “mRNA display binding score” value was inactive: -0.309.
The same measure, in the same setting: to B6 belongs inactive: -0.184.

Still in this experiment, the particulars now being: antigen blocked with: nothing.
Take B1: the “mRNA display binding score” value was inactive: 0.762.
Take B2: the “mRNA display binding score” value is inactive: 0.441.
As to B3, the “mRNA display binding score” value is inactive: -0.597.
As for B4, the “mRNA display binding score” value is inactive: -0.342.
For the molecule B5, the “mRNA display binding score” value is inactive: 0.402.
Take B6: the “mRNA display binding score” value is inactive: -0.0548.

Another experiment has as its target Influenza A H7N9 A/Shanghai/2/2013 hemagglutinin ectodomain. Described as above. Conditions: antigen blocked with: 2 µM CR9114 IgG. As to the method: as §1
Consider B1, for which the “mRNA display binding score” value is inactive: 0.347.
The same measure, in the same setting: to B2 belongs inactive: -0.0578.
Turning to B3, the “mRNA display binding score” value is inactive: 0.495.
Turning to B4, the “mRNA display binding score” value was inactive: 0.848.
Consider B5, for which the “mRNA display binding score” value was inactive: -0.666.
For B6, the “mRNA display binding score” value was inactive: -0.555.

The same experiment, now with this note: antigen blocked with: nothing.
B1: the “mRNA display binding score” value was inactive: 0.0188.
Take B2: the “mRNA display binding score” value was inactive: 1.82.
Consider B3, for which the “mRNA display binding score” value was inactive: -0.787.
B4: the “mRNA display binding score” value is inactive: 0.202.
Take B5: the “mRNA display binding score” value was inactive: -0.477.
On the same count and under the same terms, the value for B6 was inactive: -0.245.

The target in a further experiment is Influenza B/Lee/1940 hemagglutinin ectodomain. The description is as above. The conditions noted are these: antigen blocked with: 2 µM CR9114 IgG. As to the method: as §1
On to B1, for which the “mRNA display binding score” value is inactive: 0.0371.
On to B2, for which the “mRNA display binding score” value is inactive: -1.39.
B3: the “mRNA display binding score” value was inactive: -0.179.
Same read-out and setting: the value for B4 was inactive: 0.0854.
In the case of B5, the “mRNA display binding score” value is inactive: -0.143.
As for B6, the “mRNA display binding score” value is inactive: -0.516.

The same experiment, now with this note: antigen blocked with: nothing.
As for B1, the “mRNA display binding score” value was inactive: -0.105.
For the molecule B2, the “mRNA display binding score” value was inactive: 0.316.
Still for that read-out and setting: to B3 belongs inactive: -0.213; to B4, inactive: -0.289.
For B5, the “mRNA display binding score” value was inactive: -0.324.
As to B6, the “mRNA display binding score” value is inactive: -0.00408.

The next experiment addresses Influenza B/Phuket/3073/2013 hemagglutinin ectodomain. Described as above. Conditions: antigen blocked with: 2 µM CR9114 IgG. The method, then: as §1
As for B1, the “mRNA display binding score” value was inactive: 8.08.
Consider B2, for which the “mRNA display binding score” value was inactive: 0.0282.
The same measure, in the same setting: to B3 belongs inactive: 9.1; to B4, inactive: -0.24; to B5, inactive: -0.285.
In the case of B6, the “mRNA display binding score” value was inactive: -0.333.

Still in this experiment, the particulars now being: antigen blocked with: nothing.
With B1, the “mRNA display binding score” value was active: 7.18.
Turning to B2, the “mRNA display binding score” value was inactive: 0.218.
Consider B3, for which the “mRNA display binding score” value was inactive: 1.93.
On the same count and under the same terms, the value for B4 was inactive: -0.0506.
Same read-out and setting: the value for B5 was inactive: -0.397; that for B6 was inactive: -0.348.
